{"source": "PubChem BioAssay AID2107", "about": "(National Center for Advancing Translational Sciences (NCATS), 2009)", "note": "The campaign covered roughly 240,000 compounds. About 20 (0.008%) were called active. This list was built around the results that the source calls inconclusive (neither active nor inactive); the mix of calls is not that of the screen. Calls follow the shape of the dose curve; as a rule, active = well fitted inhibition curve with a large enough effect; inconclusive = small, poorly fitted or top-dose-only effect, or effect the other way; inactive = flat fitted curve, though single readings scatter. Potencies of inconclusive entries are left out as doubtful fits. Potency is read from the fitted curve at half-maximal effect; tags tell the direction and shape of the fitted curve."}
{"target": "Alpha-galactosidase A (Homo sapiens) (UniProt P06280)", "sequence (P06280 whole entry, looked up)": "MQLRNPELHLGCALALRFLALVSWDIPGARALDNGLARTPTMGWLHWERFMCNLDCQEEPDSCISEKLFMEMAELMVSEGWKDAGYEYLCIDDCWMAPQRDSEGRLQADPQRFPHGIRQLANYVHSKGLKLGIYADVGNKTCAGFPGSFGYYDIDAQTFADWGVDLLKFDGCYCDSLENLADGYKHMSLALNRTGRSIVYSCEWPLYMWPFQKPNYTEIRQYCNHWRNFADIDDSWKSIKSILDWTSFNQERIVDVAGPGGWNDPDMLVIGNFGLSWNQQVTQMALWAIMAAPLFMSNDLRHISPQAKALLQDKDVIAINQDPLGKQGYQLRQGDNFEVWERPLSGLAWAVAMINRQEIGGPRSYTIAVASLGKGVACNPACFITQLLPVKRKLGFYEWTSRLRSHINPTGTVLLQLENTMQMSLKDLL", "assay": "qHTS Assay for Inhibitors and Activators of Human alpha-Galactosidase From Spleen Homogenate;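 as to activity change, negative = inhibition: 0% = enzyme with vehicle and -100% = no enzyme basal signal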", "settings": "4MU-alpha-Gal fluorescence, 40 min; activity change, negative = inhibition: at 80 µM (top of the series)", "method_in_brief": "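Human spleen homogenate (1 ug) was the enzyme source, with 4-methylumbelliferyl-alpha-D-galactopyranoside (1 mM final) in pH 5.0 citrate buffer with 0.01% Tween-20. Compounds were titrated; after 40 min at 37C, NaOH/glycine stop, 4-MU fluorescence read; AC50 from Hill fits.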"}
{"compound": "CCOc1ccc(-n2c(-c3ccc(OC)cc3)c[n+]3c2CCCCC3)cc1", "Potency": "inactive"}
{"compound": "Cn1c(=N)n(CC(=O)O)c2ccccc21", "Potency": "inactive"}
{"compound": "CCC(N=c1cc(-c2ccc(OC)cc2)oc2ccc(C)cc12)C(=O)O", "note": "(stereo unspecified)", "Potency": "inconclusive [activator, single point]"}
{"compound": "COc1cc(C2C3C(=O)N(Cc4ccccc4)C(=O)C3ON2c2ccccc2)cc(OC)c1O", "note": "(stereo unspecified)", "Potency": "inactive"}
{"compound": "COc1ccc(-c2nn(-c3ccccc3)cc2CNCCN2CCOC2=O)c(F)c1", "Potency": "inconclusive [activator, single point]"}
{"compound": "CCOC(=O)c1c(NC(=O)CCN2C(=O)c3ccccc3C2=O)sc(C(=O)OC(C)C)c1C", "Potency": "inactive"}
{"compound": "CCN(CC)Cc1cc(C(=O)O)c(C)o1", "Potency": "inconclusive [inhibitor, single point]"}
{"compound": "COc1ccc2cc3cc(C(=O)NCc4ccccn4)oc3nc2c1", "Potency": "inconclusive [activator, single point]"}
{"compound": "O=C(Nc1c2ccccc2nc2ccccc12)C(Cl)(Cl)Cl", "Potency": "inconclusive [activator, partial curve]"}
{"compound": "O=C(O)c1ccc(N=c2oc3cc(O)ccc3cc2C(=O)NCc2ccccc2)cc1", "Potency": "inconclusive [activator, partial curve]"}
{"compound": "CCN(CC)CCCNC(=O)CCC(=O)Nc1ccc2nc(N3CCC(C)CC3)cc(C)c2c1", "Potency": "inconclusive [activator, partial curve]"}
{"compound": "CCOC(=O)CC(C(=O)OCC)C1CCCCC1=O", "note": "(stereo unspecified)", "Potency": "inactive"}
{"compound": "Cc1ccc(CNC(=O)C2(C(F)(F)F)C/C(=C\\CCO)CCCO2)o1", "note": "(stereo unspecified)", "Potency": "inactive"}
{"compound": "CSC1=NCCN1C(=O)c1ccc(S(=O)(=O)N2CCOCC2)cc1", "Potency": "inconclusive [activator, full curve]"}
{"compound": "CS(=O)(=O)N(CC(=O)NCc1cccnc1)Cc1ccc(Cl)cc1", "Potency": "inactive"}
{"compound": "COc1cccc(/C=N/NC(=O)CN2CC(c3ccccc3)CC2=O)c1O", "note": "(stereo unspecified)", "Potency": "inactive"}
{"compound": "CC(C)c1cccc2nc3c(c(C(C)(C)C)c12)Cn1c-3cccc1=O", "Potency": "inconclusive [activator, single point]"}
{"compound": "CCOC(=O)c1nn(-c2ccc(C)cc2)cc1C(=O)c1ccccc1", "Potency": "inconclusive [inhibitor, single point]"}
{"compound": "Cc1ccc2nc(-c3ccc(N)cc3)sc2c1", "Potency": "inconclusive [activator, partial curve]"}
{"compound": "CC(=O)N1CCc2cc(S(=O)(=O)NCCC(=O)N3CCN(c4ccccn4)CC3)ccc21", "Potency": "inactive"}
{"compound": "Cc1nn(C)c(C)c1/C=N/NC(=O)c1csc2ccccc12", "Potency": "inactive"}
{"compound": "O=c1[nH]c(NCCO)nc2c1C1(CCCC1)Cc1ccccc1-2", "Potency": "inconclusive [activator, single point]"}
{"compound": "COC(=O)CCC(NC(=O)c1cc(-c2ccc3c(c2)OCCO3)oc1C)C(=O)OC", "note": "(stereo unspecified)", "Potency": "inactive"}
{"compound": "COc1ccc(CCNc2oc(-c3cccc4ccccc34)nc2P(=O)(OC)OC)cc1OC", "Potency": "inconclusive [activator, single point]"}
{"compound": "CCCn1c(=O)c2[nH]c(-c3ccc(S(=O)(=O)O)cc3)nc2n(CCC)c1=O", "Potency": "inconclusive [activator, partial curve]"}
{"compound": "CCN(C(=O)CN1CCN(c2ccc(O)cc2)CC1)c1c(N)n(Cc2ccccc2)c(=O)[nH]c1=O", "Potency": "inactive"}
{"compound": "Cc1ccc(CNC(=O)CSc2nc3c(sc4ccccc43)c(=O)n2CCCN2CCCC2)cc1", "Potency": "inconclusive [activator, single point]"}
{"compound": "COCCCNC(=O)c1ccc2nc3ccccc3c(=O)n2c1", "Potency": "inconclusive [activator, single point]"}
{"compound": "COc1cc(/C=N/S(=O)(=O)CCc2ccccc2)ccc1O", "Potency": "inactive"}
{"compound": "O=C(O)C/C=C(\\NC(=O)OCc1ccccc1)C(=O)OCc1ccccc1", "Potency": "inactive"}
{"compound": "O=C(C1CCC(CNS(=O)(=O)c2cccs2)CC1)N1CCCCC1", "note": "(stereo unspecified)", "Potency": "inactive"}
{"compound": "CC(=O)c1ccc(OC(=O)c2ccc(Br)o2)cc1", "Potency": "inconclusive [inhibitor, partial curve]"}
{"compound": "Nc1c(C(=O)NCc2ccccc2)c2nc3ccccc3nc2n1CCCN1CCOCC1", "Potency": "inconclusive [activator, single point]"}
{"compound": "Cc1cnc(C(=O)Nc2cccc(-c3nnc4n3CCCCC4)c2)cn1", "Potency": "inactive"}
{"compound": "Cc1cc(C)cc(NC(=O)CSc2nnc(-c3ccccc3C)o2)c1", "Potency": "inactive"}
{"compound": "COC(=O)c1ccc(C2C(C#N)=C(C)NC3=C2C(=O)CC(C)(C)C3)cc1", "note": "(stereo unspecified)", "Potency": "inconclusive [activator, partial curve]"}
{"compound": "CCN(CC)C(=S)Nc1cc(C(=O)OC)ccc1C(=O)OC", "Potency": "inconclusive [activator, single point]"}
{"compound": "CCOC(=O)c1c(C)[nH]c2c1cc(O)c1ccccc12", "Potency": "inactive"}
{"compound": "CCN(CCCNC(=O)COc1cc(=O)n(CC)c2ccccc12)Cc1ccccc1", "Potency": "inconclusive [inhibitor, single point]"}
{"compound": "COc1ccc(F)cc1CN1CCN(c2cc(C)nc3c4c(C)cc(C)nc4nn23)CC1", "Potency": "inconclusive [activator, partial curve]"}
{"compound": "COc1ccc(-c2cc3nc(-c4ccccc4)cc(N4CCC(O)CC4)n3n2)cc1", "Potency": "inconclusive [activator, single point]"}
{"compound": "Nc1cc(-c2ccncc2)c[nH]c1=O", "Potency": "inconclusive [inhibitor, full curve, poor fit]"}
{"compound": "COC(=O)c1ccc(COc2ccc3c(C)c(C)c(=O)oc3c2C)o1", "Potency": "inconclusive [activator, single point]"}
{"compound": "Nc1ccccc1N=Cc1ccc(-c2cccc(Cl)c2)o1", "Potency": "inconclusive [activator, partial curve]"}
{"compound": "O=C(Nc1ccc(-c2nc3ccccc3[nH]2)cc1)c1cccc(N2C(=O)CCC2=O)c1", "Potency": "inconclusive [activator, single point]"}
{"compound": "CC1CCCC(C)N1C(=O)CSc1nnc(-c2cccs2)o1", "note": "(stereo unspecified)", "Potency": "inconclusive [inhibitor, full curve, poor fit]"}
{"compound": "CC(C)Cc1nc(N2CCN(C(=O)c3ccco3)CC2)c(C#N)c2c1CCC2", "Potency": "inconclusive [activator, partial curve]"}
{"compound": "CSc1ccccc1NC(=O)c1noc2c1CCC2", "Potency": "inactive"}
{"compound": "CCN1CC=C2C(C#N)=C(N)C(C#N)(C#N)[C@H](c3ccoc3)[C@H]2C1", "Potency": "inconclusive [activator, single point]"}
{"compound": "N#Cc1ccc(Oc2ccc(NC(=O)C3CC=CCC3C(=O)O)cc2)cc1", "note": "(stereo unspecified)", "Potency": "inactive"}
{"compound": "CCN1C(=O)[C@@H]2[C@H]3C(=CC[C@H]2C1=O)C(=O)[C@H]1OC1[C@H]3O", "note": "(stereo partly specified)", "activity change, negative = inhibition": "inactive: -5.31% [at 17.5 µM]"}
{"compound": "CC1=NNC(=O)C1C(c1ccccc1)C1C(=O)NN=C1C", "note": "(stereo unspecified)", "Potency": "inactive"}
{"compound": "CNC(=O)/C(C#N)=C/c1c(N(Cc2ccccc2)Cc2ccccc2)nc2c(C)cccn2c1=O", "Potency": "inconclusive [activator, single point]"}
{"compound": "CCCOC(=O)CN1C(=O)c2ccccc2C1=O", "Potency": "inactive"}
{"compound": "COc1ccc(/C=N/Nc2nc3ccccc3c(=O)[nH]2)cc1", "Potency": "inconclusive [activator, partial curve]"}
{"compound": "CC1CCC(C(=O)O)NC1c1cccc(N2CCOCC2)c1", "note": "(stereo unspecified)", "activity change, negative = inhibition": "inactive: -0.908% [at 17.5 µM]"}
{"compound": "C=CCNc1nc(N2CCCC2)nc2ccccc12", "Potency": "inconclusive [activator, partial curve]"}
{"compound": "O=C(C(Sc1ccccc1)c1ccccc1)N1CCN(c2ccccc2F)CC1", "note": "(stereo unspecified)", "Potency": "inconclusive [activator, single point]"}
{"compound": "O=C(Oc1ccc2ccc(=O)oc2c1)c1cccs1", "Potency": "inconclusive [activator, single point]"}
{"compound": "CC(C)C(c1nnnn1C1CCCC1)N1CCCc2ccccc21", "note": "(stereo unspecified)", "Potency": "inactive"}
{"compound": "CCC(=O)N1CCc2cc(S(=O)(=O)NC(C(=O)NCc3ccc(C)cc3)C(C)C)ccc21", "note": "(stereo unspecified)", "Potency": "inconclusive [activator, single point]"}
{"compound": "Cc1ccc2nc3c(cc(C(=O)NCC4CCCO4)c(=N)n3CCCOC(C)C)c(=O)n2c1", "note": "(stereo unspecified)", "Potency": "inconclusive [activator, partial curve]"}
{"compound": "CC(=O)SC(C[N+](=O)[O-])c1cn(C(C)=O)c2ccccc12", "note": "(stereo unspecified)", "Potency": "inconclusive [activator, single point]"}
{"compound": "O=C(O)c1ccc(-c2nc(-c3ccccc3)c(-c3ccccc3)[nH]2)cc1", "Potency": "inconclusive [activator, single point]"}
{"compound": "Cc1oc(C(C)(C)C)cc1C(=O)N1CCN(c2ccc(C(F)(F)F)cn2)CC1", "Potency": "inconclusive [inhibitor, partial curve]"}
{"compound": "Nc1ccc(Cl)cc1C(=O)OCC(=O)NC1CCS(=O)(=O)C1", "note": "(stereo unspecified)", "Potency": "inconclusive [activator, single point]"}
{"compound": "COc1cccc(Cn2c(=O)c(-c3ccccc3)nc3cnc(N4CCN(C)CC4)nc32)c1", "Potency": "inconclusive [activator, single point]"}
{"compound": "CN1CCN(C(=O)CSc2nc(-c3cccs3)ccc2C#N)CC1", "Potency": "inconclusive [activator, partial curve]"}
{"compound": "COc1ccc(-n2c(-c3ccccc3)nnc2-c2ccc(Cl)cc2)cc1", "Potency": "inconclusive [activator, single point]"}
{"compound": "Cc1cc(NCCO)c2cc(O)ccc2n1", "Potency": "inconclusive [activator, partial curve]"}
{"compound": "CN(C)c1ncc2nc(CCc3ccccc3)c(=O)n(CCC#N)c2n1", "Potency": "inconclusive [activator, partial curve]"}
